Measured values: the supplement of paper PMC11383711
The other results are listed elsewhere or left out. Binding of human antibodies (heavy:light variable regions, tested as scFv in one mRNA-display pool) to influenza hemagglutinin, with or without the stem antibody CR9114 bound first. Score = (mean enrichment − median) / interquartile range of that screen; higher = more enriched, 0 = typical non-binder. Active = above the paper's cut-off per screen: stems 28; unblocked H1 Solomon Islands 5, H1 Michigan 3, H3 5, H5 19, H7 2.85, both B 5; blocked 9, 7, H5 10, H7 10, B Phuket 10, B Lee 11.5. Scores are scaled within each screen and are no affinities; replicates correlate at about 0.6 to 0.9, and antibodies rare in the pool are noisier.

Tests used:
Assay in all cases: mRNA display binding score; higher = more enriched on the antigen
[1] = biological target: Influenza A H1N1 A/Michigan/45/2015 hemagglutinin ectodomain
Procedure: (§1)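 A pool of natively paired antibodies, displayed as scFv on mRNA, was selected once on antigen-coated beads and sequenced before and after; two replicates.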

[2] = biological target: Influenza A H1N1 A/Solomon Islands/3/2006 hemagglutinin ectodomain
Procedure: as §1

[3] = biological target: Influenza A H3N2 A/Singapore/INFIMH-16-0019/2016 hemagglutinin ectodomain; settings: antigen blocked with: nothing
Procedure: as §1

[4] = biological target: Influenza A H5N1 A/Qinghai/1A/2005 hemagglutinin ectodomain
Procedure: as §1

[5] = biological target: Influenza A H7N9 A/Shanghai/2/2013 hemagglutinin ectodomain
Procedure: as §1

[6] = biological target: Influenza B/Lee/1940 hemagglutinin ectodomain
Procedure: as §1

[7] = biological target: Influenza B/Phuket/3073/2013 hemagglutinin ectodomain
Procedure: as §1

[8] = antigen blocked with: 2 µM CR9114 IgG

Measured: mRNA display binding score

B1: AG11-2B01 (protein)
chain 1: VQLQESGPGLVRPSETLSLTCSLSGGSFSEATDYWGWVRQAPGKGLEWIGSMSPSGITYISPSLTSRVTMSVDTSKKQFSLRLSFVVAADAAMYYCIKDRDIVSRGGFDLWGQGTLVTVSS
chain 2: DIQMTQSPSSLSASVGDAVTITCRASESISIFLNWYQHKPGKAPKLLIYLTSTLQSGVPSRFSGSGSGTDFTLTISGLQPEDFATYYCQQSYSHLPYTFGQGTKVEIK
active: [7]; [8] 40.6 | [7]; antigen blocked with: nothing 41.7
inactive: [1]; [8] 1.52 | [1]; antigen blocked with: nothing 1.31 | [2]; [8] 0.889 | [2]; antigen blocked with: nothing 0.135 | [3] 0.931 | [4]; [8] 7.55 | [4]; antigen blocked with: nothing 15.8 | [5]; [8] 2.03 | [5]; antigen blocked with: nothing 1.75 | [6]; [8] 0.766 | [6]; antigen blocked with: nothing 0.338

B2: R95-1D02 (protein)
chain 1: QVQLQESGPGLVKPSETLSLTCTVSGDSVSDNFWTWIRQPPGKALEWIGYMYYSGSIKYNPSLKSRVTMSLDTSKNQFSLELTSVTAADTAVYYCARATTWGAPEFDYWGQGTLVTVSS
chain 2: DIQMTQSPSSLSASVGDTVTITCRASQSINFYLNWYQQKPGRAPNLLISSASILQSGVPSRFSGSGSGTGFTLTISSLQPEDFATYFCQQSYSSPYTFGQGTKLETK
inactive: [1]; [8] 2.32 | [1]; antigen blocked with: nothing 0.884 | [2]; [8] 1.52 | [2]; antigen blocked with: nothing 4.75 | [3] 1.23 | [4]; [8] 0.215 | [4]; antigen blocked with: nothing 2.17 | [5]; [8] 0.105 | [5]; antigen blocked with: nothing 0.842 | [6]; [8] 2.39 | [6]; antigen blocked with: nothing 4.64 | [7]; [8] 1.55 | [7]; antigen blocked with: nothing 3.92

B3: AG13-3B01 (protein)
chain 1: VQLVESGGGLVKPGGSLRLSCAASGFTFSDYYMTWIRQAPGKGLEWVSYIDSWSTYTDYPDSVKGRFTVSRDNAKNSLYLQMNSLRADDTAVYFCARDRGDCSRTTCSFDSWGQGTLVTVSS
chain 2: EIVMTQSPATLSVSPGERATLSCRASQSVSSYLAWYQQKPGQAPRLLIYGASTRATGIPARFSGSGSGTEFTLTISSLQSEDFGIYYCQQYSDWPLTFGGGTKVEIK
inactive: [1]; [8] 4.77 | [1]; antigen blocked with: nothing 1.79 | [2]; [8] 3.65 | [3] 2.11 | [4]; [8] 1.56 | [4]; antigen blocked with: nothing 8.42 | [5]; [8] 5.88 | [5]; antigen blocked with: nothing 1.69 | [6]; [8] 1.48
active: [2]; antigen blocked with: nothing 7.33 | [6]; antigen blocked with: nothing 6.92 | [7]; [8] 15.1 | [7]; antigen blocked with: nothing 30

B4: D1-H1-17-H3-14 (protein)
chain 1: QVQLQESGPGLVKPSESLSLTCSVSGGSVSSNLHYWSWIRQLPGKGLEWIGYISYTGSTKYNPSLNGRVTLSIDASKNQFSLELSSVTAADTAVYYCARDFFEKLIADDLNAFDIWGQGTMVTVSG
chain 2: DIRVTQSPSSLSASVGDRVTITCRASQSISRSLNWYQQRPGKAPKFLIYAASNLQSGVPSRFSGGGSGTDFTLTISSLQPEDFATYYCQETYSRTFGQGTKADIK
inactive: [1]; [8] 1.94 | [1]; antigen blocked with: nothing 0.489 | [2]; [8] 1.11 | [2]; antigen blocked with: nothing 4.99 | [4]; [8] 0.0128 | [4]; antigen blocked with: nothing 1.45 | [5]; [8] -0.278 | [5]; antigen blocked with: nothing 0.465 | [6]; [8] -0.286 | [6]; antigen blocked with: nothing 3.63 | [7]; [8] 1.24 | [7]; antigen blocked with: nothing 3.01
active: [3] 22.1

B5: R95-1F02 (protein)
chain 1: EVQLLESGGGLVQPGGSLRLSCAASGFTFSSCAMTWVRRAPGKGLEWVSAISAGGGSTWYADSVKGRFTISRDNSKNTLYLQMNGLRAEDTAVYYCAKDLLHWYFDLWGRGTLVTVSS
chain 2: EIVLTQSPATLSLSPGEGATLSCRASQSVSSYLAWYQQKPGQAPRLLIYDASNRATGIPARFSGSGSGTDFTLTISSLEPEDFAVYYCQQRRNWPLTFGGGTKVEIK
inactive: [1]; [8] 3.94 | [1]; antigen blocked with: nothing 0.32 | [2]; [8] 2.99 | [2]; antigen blocked with: nothing 2.1 | [3] 0.371 | [4]; [8] 3.16 | [4]; antigen blocked with: nothing 0.662 | [5]; [8] 2.75 | [5]; antigen blocked with: nothing 0.465 | [6]; [8] 1.48 | [6]; antigen blocked with: nothing 2.11 | [7]; [8] 5.88 | [7]; antigen blocked with: nothing 1.72

B6: W85-2G05 (protein)
chain 1: LVQPQESGPGLVKPSETLSLTCSVSGDSMYDYYWSWIRQPPGKGLEWIGCIHYSGSTNYNPSLKSRVTISVDTSKNQFSLKLSSVTAADTALYYCATGRSSNSGWYPYFYYGLDVWGQGTTVTVSS
chain 2: QSALTQPPSASGTPGQRVTISCSGSSSNIGENYVYWYQLFPGTAPKLVIYRSDQRPSGVPDRFSGSKSGTSASLVISGLRSEDEADFYCATWDDSLSGSWVFGGGTKLTV
inactive: [1]; [8] 1.77 | [1]; antigen blocked with: nothing 0.922 | [2]; [8] 1.08 | [2]; antigen blocked with: nothing 4.99 | [3] 1.34 | [4]; [8] -0.0996 | [4]; antigen blocked with: nothing 2.08 | [5]; [8] -0.313 | [5]; antigen blocked with: nothing 0.875 | [6]; [8] -0.532 | [6]; antigen blocked with: nothing 4.73 | [7]; [8] 1.09 | [7]; antigen blocked with: nothing 3.96

B7: AG8-2B02 (protein)
chain 1: VQLVESGGGVVQPGRSLRLSCVASGFDSNEYGMHWVRQAPGKGLEWVGVIWFDGTTKYYADSVKGRFTVSRDNSKNTVYLEMNSLRVEDTAVYYCAREHLPYYYDVGIYYYYGMNVWGQGTTVTVSS
chain 2: DIVMTQSPDSLAVSLGERATIKCKSSQSVLYSSYNKYYLAWYQKKPGQPPKLLLYWASTRESGVPDRFSGSGSGTDFTLTISSLQAEDVAVYYCQQYYSIPLTFGGGTKVEIK
inactive: [1]; [8] 1.25 | [1]; antigen blocked with: nothing 0.32 | [2]; [8] 0.609 | [2]; antigen blocked with: nothing 3.27 | [3] 0.756 | [4]; [8] -0.0037 | [4]; antigen blocked with: nothing 1.3 | [5]; [8] -0.763 | [5]; antigen blocked with: nothing 0.875 | [6]; [8] -0.842 | [6]; antigen blocked with: nothing 3.21 | [7]; [8] 0.677 | [7]; antigen blocked with: nothing 2.67
